No constants are given. Whether binding was seen depends on the method and setting. In cells and extracts the contact can be indirect. Some results given as binding are weak or reduced against the parent protein; the word gives no strength. For part of these data: Sequences can lack the tags named with a protein.
How the values were obtained:
[1] = biological target: T1, endogenous FLCN (folliculin) (human (endogenous; only human cell lines, HEK293 and HK2, are used in the paper)) (UniProt Q8NFG4); experiment: co-IP; endogenous FLCN immunoprecipitated with an antibody raised against N-terminal FLCN; endogenous DNA-PKcs detected by western blot
T1 sequence: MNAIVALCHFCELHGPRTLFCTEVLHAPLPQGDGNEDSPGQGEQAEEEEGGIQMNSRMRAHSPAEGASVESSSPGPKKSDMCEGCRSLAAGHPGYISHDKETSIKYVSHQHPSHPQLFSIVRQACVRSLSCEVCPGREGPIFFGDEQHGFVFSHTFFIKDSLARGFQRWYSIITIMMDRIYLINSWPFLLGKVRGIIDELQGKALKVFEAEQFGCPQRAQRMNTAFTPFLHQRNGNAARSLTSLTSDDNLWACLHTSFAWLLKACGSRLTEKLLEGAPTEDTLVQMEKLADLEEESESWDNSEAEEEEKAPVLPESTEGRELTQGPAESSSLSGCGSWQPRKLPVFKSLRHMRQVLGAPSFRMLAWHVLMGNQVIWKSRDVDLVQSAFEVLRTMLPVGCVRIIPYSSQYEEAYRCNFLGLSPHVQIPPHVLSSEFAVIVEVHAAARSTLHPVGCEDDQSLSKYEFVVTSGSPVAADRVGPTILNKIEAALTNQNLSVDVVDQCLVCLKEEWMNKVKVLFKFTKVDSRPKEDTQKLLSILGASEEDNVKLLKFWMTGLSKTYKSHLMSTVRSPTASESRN

Amino acid sequences for entries named in this document (tags omitted).
UniProt P78527: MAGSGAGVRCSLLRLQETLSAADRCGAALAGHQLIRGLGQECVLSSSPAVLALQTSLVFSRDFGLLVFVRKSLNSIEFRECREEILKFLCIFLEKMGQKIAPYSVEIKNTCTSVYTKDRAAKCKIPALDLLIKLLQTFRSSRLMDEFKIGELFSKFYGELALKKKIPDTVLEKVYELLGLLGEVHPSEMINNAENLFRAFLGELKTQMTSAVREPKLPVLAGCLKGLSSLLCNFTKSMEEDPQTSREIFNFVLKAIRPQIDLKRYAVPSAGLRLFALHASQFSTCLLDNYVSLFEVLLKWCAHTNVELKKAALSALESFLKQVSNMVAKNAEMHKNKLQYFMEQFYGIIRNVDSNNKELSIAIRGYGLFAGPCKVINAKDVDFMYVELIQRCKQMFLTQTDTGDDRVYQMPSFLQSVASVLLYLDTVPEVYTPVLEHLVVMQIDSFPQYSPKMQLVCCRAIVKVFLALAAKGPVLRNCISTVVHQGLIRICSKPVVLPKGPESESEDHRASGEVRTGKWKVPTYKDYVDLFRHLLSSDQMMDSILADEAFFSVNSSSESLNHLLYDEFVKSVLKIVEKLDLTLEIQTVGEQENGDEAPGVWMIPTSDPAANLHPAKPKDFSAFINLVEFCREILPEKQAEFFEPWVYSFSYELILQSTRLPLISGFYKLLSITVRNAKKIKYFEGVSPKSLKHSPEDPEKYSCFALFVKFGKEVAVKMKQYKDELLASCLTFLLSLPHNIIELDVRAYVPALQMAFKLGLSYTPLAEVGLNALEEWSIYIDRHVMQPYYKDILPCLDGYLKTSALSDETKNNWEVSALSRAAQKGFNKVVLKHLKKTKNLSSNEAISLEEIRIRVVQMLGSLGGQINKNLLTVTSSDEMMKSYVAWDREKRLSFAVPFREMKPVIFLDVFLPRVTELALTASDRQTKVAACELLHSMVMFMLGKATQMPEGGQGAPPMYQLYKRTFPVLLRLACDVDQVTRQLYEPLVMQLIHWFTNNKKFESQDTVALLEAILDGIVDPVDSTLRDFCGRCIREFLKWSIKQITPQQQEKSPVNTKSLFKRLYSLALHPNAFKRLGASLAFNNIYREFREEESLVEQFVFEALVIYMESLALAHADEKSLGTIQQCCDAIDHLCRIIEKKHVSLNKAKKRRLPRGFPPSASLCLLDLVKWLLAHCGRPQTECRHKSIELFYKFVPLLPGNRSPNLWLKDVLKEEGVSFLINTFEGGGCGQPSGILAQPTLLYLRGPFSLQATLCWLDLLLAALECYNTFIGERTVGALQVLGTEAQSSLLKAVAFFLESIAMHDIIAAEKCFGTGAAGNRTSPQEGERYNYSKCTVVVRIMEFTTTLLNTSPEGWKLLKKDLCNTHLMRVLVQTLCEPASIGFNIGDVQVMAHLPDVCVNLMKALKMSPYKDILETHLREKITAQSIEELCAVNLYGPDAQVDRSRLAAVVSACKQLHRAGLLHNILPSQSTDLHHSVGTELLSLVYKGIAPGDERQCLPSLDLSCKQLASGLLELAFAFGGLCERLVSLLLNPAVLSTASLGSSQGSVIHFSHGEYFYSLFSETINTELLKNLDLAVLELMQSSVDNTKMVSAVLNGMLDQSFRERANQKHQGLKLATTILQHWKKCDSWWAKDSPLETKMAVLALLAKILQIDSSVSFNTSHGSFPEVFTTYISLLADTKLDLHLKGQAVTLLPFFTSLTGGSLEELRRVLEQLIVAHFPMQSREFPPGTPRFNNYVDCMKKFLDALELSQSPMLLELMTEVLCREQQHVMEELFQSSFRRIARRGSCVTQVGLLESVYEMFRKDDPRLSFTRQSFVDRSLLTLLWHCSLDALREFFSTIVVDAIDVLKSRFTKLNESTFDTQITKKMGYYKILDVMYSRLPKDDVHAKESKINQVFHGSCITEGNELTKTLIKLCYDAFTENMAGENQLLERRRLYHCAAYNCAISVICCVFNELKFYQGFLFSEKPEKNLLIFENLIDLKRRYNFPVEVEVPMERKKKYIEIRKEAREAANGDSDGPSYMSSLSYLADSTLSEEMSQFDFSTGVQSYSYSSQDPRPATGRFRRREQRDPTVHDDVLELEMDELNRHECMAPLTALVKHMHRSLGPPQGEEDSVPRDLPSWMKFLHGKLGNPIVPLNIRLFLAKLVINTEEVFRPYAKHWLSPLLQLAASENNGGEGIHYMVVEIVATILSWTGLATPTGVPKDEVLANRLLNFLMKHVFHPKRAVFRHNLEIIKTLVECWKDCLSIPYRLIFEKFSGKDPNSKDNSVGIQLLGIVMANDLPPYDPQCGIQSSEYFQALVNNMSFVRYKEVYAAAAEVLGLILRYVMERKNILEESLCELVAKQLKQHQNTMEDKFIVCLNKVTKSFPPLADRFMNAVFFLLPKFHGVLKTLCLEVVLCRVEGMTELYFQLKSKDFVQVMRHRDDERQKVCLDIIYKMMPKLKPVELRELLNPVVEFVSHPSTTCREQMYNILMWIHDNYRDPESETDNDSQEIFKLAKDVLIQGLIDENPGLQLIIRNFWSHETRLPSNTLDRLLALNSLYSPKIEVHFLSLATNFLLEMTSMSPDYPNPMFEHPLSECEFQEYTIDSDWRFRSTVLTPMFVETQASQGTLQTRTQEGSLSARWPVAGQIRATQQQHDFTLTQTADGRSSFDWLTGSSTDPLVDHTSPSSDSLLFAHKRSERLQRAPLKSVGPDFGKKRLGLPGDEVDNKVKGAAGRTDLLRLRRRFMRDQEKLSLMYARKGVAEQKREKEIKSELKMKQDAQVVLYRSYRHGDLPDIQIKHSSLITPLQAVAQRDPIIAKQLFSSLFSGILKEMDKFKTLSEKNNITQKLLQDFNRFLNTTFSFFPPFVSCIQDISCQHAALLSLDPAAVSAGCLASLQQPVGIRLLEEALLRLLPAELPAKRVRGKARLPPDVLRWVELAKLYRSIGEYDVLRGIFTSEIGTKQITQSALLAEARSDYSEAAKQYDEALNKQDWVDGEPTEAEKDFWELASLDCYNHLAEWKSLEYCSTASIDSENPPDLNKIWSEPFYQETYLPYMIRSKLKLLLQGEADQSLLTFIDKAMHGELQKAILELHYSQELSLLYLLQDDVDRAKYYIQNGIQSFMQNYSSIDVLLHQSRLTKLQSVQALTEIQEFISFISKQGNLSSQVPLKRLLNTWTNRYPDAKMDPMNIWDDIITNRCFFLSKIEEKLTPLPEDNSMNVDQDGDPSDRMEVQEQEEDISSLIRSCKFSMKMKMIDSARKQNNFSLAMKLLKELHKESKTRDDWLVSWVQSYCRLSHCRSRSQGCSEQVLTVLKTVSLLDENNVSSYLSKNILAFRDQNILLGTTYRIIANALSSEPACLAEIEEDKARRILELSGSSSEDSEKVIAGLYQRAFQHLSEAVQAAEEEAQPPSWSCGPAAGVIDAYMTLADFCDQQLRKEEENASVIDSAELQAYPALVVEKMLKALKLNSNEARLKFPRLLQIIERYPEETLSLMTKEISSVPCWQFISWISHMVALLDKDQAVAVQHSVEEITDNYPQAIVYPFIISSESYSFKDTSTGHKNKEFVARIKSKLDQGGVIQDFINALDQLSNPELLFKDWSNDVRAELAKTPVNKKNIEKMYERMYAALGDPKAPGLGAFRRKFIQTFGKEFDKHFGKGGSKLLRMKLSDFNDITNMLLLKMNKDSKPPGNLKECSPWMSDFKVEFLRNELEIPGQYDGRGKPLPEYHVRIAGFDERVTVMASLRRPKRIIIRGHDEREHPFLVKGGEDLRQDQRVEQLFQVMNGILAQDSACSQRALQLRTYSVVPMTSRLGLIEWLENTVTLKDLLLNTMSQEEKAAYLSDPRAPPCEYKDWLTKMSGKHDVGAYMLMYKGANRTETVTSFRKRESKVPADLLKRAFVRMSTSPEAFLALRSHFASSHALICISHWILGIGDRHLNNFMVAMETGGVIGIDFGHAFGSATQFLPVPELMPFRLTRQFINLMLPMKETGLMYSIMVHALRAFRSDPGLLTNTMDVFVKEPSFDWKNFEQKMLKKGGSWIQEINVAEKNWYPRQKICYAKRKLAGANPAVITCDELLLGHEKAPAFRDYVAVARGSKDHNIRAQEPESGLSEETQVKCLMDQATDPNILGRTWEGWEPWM

HA-FLCN Y463X (human) = biological target: T2, HA-FLCN Y463X (human) (UniProt Q8NFG4); experiment: co-IP; HA-FLCN constructs overexpressed in HEK293; pre-cleared lysates, anti-HA antibodies 2 h at 4°C, protein G-Sepharose; endogenous DNA-PKcs detected by western blot
T2 sequence: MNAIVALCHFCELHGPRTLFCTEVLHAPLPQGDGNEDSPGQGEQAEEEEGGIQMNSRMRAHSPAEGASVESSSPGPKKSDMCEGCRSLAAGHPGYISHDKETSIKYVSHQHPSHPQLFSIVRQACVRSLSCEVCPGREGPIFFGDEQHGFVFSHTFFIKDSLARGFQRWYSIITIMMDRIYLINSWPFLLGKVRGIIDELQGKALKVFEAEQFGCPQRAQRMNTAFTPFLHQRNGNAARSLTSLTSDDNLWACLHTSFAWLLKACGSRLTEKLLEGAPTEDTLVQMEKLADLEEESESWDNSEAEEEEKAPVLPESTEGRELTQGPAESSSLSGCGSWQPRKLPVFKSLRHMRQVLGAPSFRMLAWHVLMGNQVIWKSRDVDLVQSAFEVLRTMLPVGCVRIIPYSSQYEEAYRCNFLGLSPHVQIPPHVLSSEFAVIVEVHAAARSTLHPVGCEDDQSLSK

[2] = biological target: T3, HA-FLCN wild type (human) (UniProt Q8NFG4); experiment: as above
T3 sequence: T1 sequence

[3] = biological target: T4, GST-tagged FLCN (folliculin) (human) (UniProt Q8NFG4); experiment: condition: only after irradiation (IR) of the cells at 5 or 10 Gy; pull-down; GST-FLCN overexpressed in HEK293 cells that were subjected to IR (5 or 10 Gy) and left 1 or 4 h before lysis; GST-FLCN purified, endogenous DNA-PKcs detected by western blot
T4 sequence: T1 sequence

[4] = biological target: T4, GST-tagged FLCN (folliculin) (human); experiment: pull-down; GST-FLCN overexpressed in HEK293 as bait; lysate on glutathione-Sepharose 4B beads, 4°C, 3 h; washed 5 times in BHD lysis buffer with 300 mM NaCl for DNA-PKcs (250 mM for all other proteins); eluted with 10 mM glutathione; endogenous proteins detected by western blot

Row | binding [1] | binding (HA-FLCN Y463X (human)) | binding [2] | binding [3] | binding [4] | Substance
1 | binds | binds | binds | no binding | binds | DNA-dependent protein kinase catalytic subunit (DNA-PKcs) (from UniProt P78527 1-4128) (enzyme)
2 |  |  |  |  | no binding | ATR (from UniProt Q13535 1-2644) (enzyme)
